Like-named read-outs stand apart in the source and are kept apart here. These are yes or no findings as the source states them, for the method shown. For part of these data: Binding seen in cells or lysates may run through a third protein. Some entries that bind do so weakly or less than the wild type. For part of these data: Sequences can lack the tags named with a protein.
Tests used:
[1] = target: T1, DE-ETIOLATED1 (DET1), full-length, yeast two-hybrid bait (Arabidopsis thaliana) (UniProt P48732); assay: two-hybrid; … GAL4 two-hybrid system 3 (pGBKT7 bait, pGADT7 prey) in S. cerevisiae AH109; growth on media lacking adenine, leucine, histidine and tryptophan; beta-galactosidase activity; full-length DET1 as bait in Figure 4b
T1 sequence: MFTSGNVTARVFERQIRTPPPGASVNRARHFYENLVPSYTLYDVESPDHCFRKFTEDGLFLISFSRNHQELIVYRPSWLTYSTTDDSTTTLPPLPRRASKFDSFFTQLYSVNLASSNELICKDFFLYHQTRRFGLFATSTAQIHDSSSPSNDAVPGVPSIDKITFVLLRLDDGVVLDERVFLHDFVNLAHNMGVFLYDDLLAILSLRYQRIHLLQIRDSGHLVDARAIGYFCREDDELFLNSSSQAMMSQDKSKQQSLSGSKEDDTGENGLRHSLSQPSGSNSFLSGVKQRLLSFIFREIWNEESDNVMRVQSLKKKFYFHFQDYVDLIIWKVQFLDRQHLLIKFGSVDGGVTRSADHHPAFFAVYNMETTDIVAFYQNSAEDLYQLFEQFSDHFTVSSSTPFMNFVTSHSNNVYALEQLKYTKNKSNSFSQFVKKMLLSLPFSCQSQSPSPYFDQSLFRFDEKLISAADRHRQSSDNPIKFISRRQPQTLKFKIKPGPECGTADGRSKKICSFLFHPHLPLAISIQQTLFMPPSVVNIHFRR

Sequences of proteins named here, by UniProt entry; tags and fusion partners are left off.
UniProt P82280: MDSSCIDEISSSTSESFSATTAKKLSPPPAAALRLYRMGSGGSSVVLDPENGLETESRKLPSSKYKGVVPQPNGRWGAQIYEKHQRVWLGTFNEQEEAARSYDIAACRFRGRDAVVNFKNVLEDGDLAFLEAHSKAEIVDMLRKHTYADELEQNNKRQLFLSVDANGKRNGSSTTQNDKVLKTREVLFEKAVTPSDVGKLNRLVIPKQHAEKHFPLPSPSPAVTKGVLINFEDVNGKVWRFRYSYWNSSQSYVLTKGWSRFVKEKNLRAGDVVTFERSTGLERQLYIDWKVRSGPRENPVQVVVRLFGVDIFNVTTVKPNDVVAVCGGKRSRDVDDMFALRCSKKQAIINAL

[2] = target: T1, DE-ETIOLATED1 (DET1), full-length, yeast two-hybrid bait (Arabidopsis thaliana); assay: as above; remark: listed apart in the source
[3] = target: T2, nYFP-DET1 (Arabidopsis thaliana) (UniProt P48732); assay: split reporter; BiFC: nEYFP and cEYFP fusion plasmids mixed 1:1 and co-bombarded into onion epidermal layers, incubated on MS solid media with MG132 for 16-24 h at 22°C, confocal microscopy
T2 sequence: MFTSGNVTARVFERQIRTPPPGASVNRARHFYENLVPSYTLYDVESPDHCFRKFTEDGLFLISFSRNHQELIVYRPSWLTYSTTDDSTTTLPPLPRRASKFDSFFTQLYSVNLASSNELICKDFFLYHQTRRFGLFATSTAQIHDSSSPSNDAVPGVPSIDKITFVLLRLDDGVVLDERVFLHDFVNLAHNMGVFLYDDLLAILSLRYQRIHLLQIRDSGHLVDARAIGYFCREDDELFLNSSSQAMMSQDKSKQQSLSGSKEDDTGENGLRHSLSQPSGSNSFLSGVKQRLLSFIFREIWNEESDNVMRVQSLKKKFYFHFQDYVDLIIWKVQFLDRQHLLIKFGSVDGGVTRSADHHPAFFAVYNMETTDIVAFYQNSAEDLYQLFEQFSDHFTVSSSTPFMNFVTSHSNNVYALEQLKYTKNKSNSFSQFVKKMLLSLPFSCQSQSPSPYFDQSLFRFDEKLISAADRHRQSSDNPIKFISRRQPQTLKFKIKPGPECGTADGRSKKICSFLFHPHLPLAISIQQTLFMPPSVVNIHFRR

With “TEM2, yeast two-hybrid fusion (from UniProt P82280 1-352)” the binding [1] was “no binding”.

B1: GIGANTEA N-terminal region (aa 1-507), yeast two-hybrid prey (domain or fragment, UniProt Q9SQI2 1-507)
chain: MASSSSSERWIDGLQFSSLLWPPPRDPQQHKDQVVAYVEYFGQFTSEQFPDDIAELVRHQYPSTEKRLLDDVLAMFVLHHPEHGHAVILPIISCLIDGSLVYSKEAHPFASFISLVCPSSENDYSEQWALACGEILRILTHYNRPIYKTEQQNGDTERNCLSKATTSGSPTSEPKAGSPTQHERKPLRPLSPWISDILLAAPLGIRSDYFRWCSGVMGKYAAGELKPPTIASRGSGKHPQLMPSTPRWAVANGAGVILSVCDDEVARYETATLTAVAVPALLLPPPTTSLDEHLVAGLPALEPYARLFHRYYAIATPSATQRLLLGLLEAPPSWAPDALDAAVQLVELLRAAEDYASGVRLPRNWMHLHFLRAIGIAMSMRAGVAADAAAALLFRILSQPALLFPPLSQVEGVEIQHAPIGGYSSNYRKQIEVPAAEATIEATAQGIASMLCAHGPEVEWRICTIWEAAYGLIPLNSSAVDLPEIIVATPLQPPILSWNLYIPLLKV
In the case of B1, the binding [2] is reported as “binds”.

B2: GI-cYFP (protein, UniProt Q9SQI2 1-1173)
chain: MASSSSSERWIDGLQFSSLLWPPPRDPQQHKDQVVAYVEYFGQFTSEQFPDDIAELVRHQYPSTEKRLLDDVLAMFVLHHPEHGHAVILPIISCLIDGSLVYSKEAHPFASFISLVCPSSENDYSEQWALACGEILRILTHYNRPIYKTEQQNGDTERNCLSKATTSGSPTSEPKAGSPTQHERKPLRPLSPWISDILLAAPLGIRSDYFRWCSGVMGKYAAGELKPPTIASRGSGKHPQLMPSTPRWAVANGAGVILSVCDDEVARYETATLTAVAVPALLLPPPTTSLDEHLVAGLPALEPYARLFHRYYAIATPSATQRLLLGLLEAPPSWAPDALDAAVQLVELLRAAEDYASGVRLPRNWMHLHFLRAIGIAMSMRAGVAADAAAALLFRILSQPALLFPPLSQVEGVEIQHAPIGGYSSNYRKQIEVPAAEATIEATAQGIASMLCAHGPEVEWRICTIWEAAYGLIPLNSSAVDLPEIIVATPLQPPILSWNLYIPLLKVLEYLPRGSPSEACLMKIFVATVETILSRTFPPESSRELTRKARSSFTTRSATKNLAMSELRAMVHALFLESCAGVELASRLLFVVLTVCVSHEAQSSGSKRPRSEYASTTENIEANQPVSNNQTANRKSRNVKGQGPVAAFDSYVLAAVCALACEVQLYPMISGGGNFSNSAVAGTITKPVKINGSSKEYGAGIDSAISHTRRILAILEALFSLKPSSVGTPWSYSSSEIVAAAMVAAHISELFRRSKALTHALSGLMRCKWDKEIHKRASSLYNLIDVHSKVVASIVDKAEPLEAYLKNTPVQKDSVTCLNWKQENTCASTTCFDTAVTSASRTEMNPRGNHKYARHSDEGSGRPSEKGIKDFLLDASDLANFLTADRLAGFYCGTQKLLRSVLAEKPELSFSVVSLLWHKLIAAPEIQPTAESTSAQQGWRQVVDALCNVVSATPAKAAAAVVLQAERELQPWIAKDDEEGQKMWKINQRIVKVLVELMRNHDRPESLVILASASDLLLRATDGMLVDGEACTLPQLELLEATARAIQPVLAWGPSGLAVVDGLSNLLKCRLPATIRCLSHPSAHVRALSTSVLRDIMNQSSIPIKVTPKLPTTEKNGMNSPSYRFFNAASIDWKADIQNCLNWEAHSLLSTTMPTQFLDTAARELGCTISLSQ
For B2, the binding [3] was “binds”.

From article PMC4428065
